Data reported in article PMC6919601, “Identification of Plasmodium dipeptidyl aminopeptidase allosteric inhibitors by high throughput screening” (PLoS ONE, 2019).
Among all 110,000 compounds or so, about 230 (0.21%) showed an effect of 50% or more. Some of the results follow.

These compounds were tested against DPAP1 (Plasmodium falciparum, UniProt Q8IIJ9) (assay: primary screen, percent inhibition; read by cleavage of a fluorogenic dipeptide substrate; higher = more effect of the substance).
Parameters: species or system P. falciparum D10 trophozoite lysates; single well
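Also: 30 min substrate incubation versus DMSO and 10 µM JCP410 controls.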

Sequence of DPAP1 (Q8IIJ9 whole entry, looked up): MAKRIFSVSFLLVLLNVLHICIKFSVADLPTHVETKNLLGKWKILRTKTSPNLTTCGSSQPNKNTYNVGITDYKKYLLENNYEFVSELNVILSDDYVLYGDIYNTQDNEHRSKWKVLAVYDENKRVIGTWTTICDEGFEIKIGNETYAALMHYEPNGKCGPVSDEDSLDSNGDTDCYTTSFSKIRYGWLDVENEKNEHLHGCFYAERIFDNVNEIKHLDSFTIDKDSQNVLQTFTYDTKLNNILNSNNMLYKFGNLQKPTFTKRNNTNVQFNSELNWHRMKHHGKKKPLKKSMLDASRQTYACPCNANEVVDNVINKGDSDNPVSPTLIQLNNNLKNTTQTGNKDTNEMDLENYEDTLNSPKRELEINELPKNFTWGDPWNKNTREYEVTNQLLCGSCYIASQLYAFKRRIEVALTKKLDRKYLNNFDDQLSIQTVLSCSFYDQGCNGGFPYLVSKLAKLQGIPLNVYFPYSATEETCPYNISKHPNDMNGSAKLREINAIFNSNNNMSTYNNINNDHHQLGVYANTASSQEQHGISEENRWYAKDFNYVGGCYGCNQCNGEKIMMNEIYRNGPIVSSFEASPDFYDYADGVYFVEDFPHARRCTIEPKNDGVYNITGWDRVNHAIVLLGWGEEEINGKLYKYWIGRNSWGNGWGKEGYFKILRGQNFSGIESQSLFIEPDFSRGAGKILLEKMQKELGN

Compound	% Inhibition @ 10 uM [%]
Cc1cccc(OCCCn2c(C(C)O)nc3ccccc32)c1 (stereo not shown)	-2.17
CCOC(=O)C1=C(CSc2nc(C)cc(COC)c2C#N)NC(=O)NC1c1ccc2c(c1)OCO2 (stereo not shown)	2.99
Cc1ccc(C(=O)N(CCO)C2CCCCC2)cc1	0.215
COc1cccc(/C=C(\C#N)c2nc(-c3ccc(Br)cc3)cs2)c1	-4.3
CCOC(=O)c1ccc(OCC2c3cc(OC)c(OC)cc3CCN2C(=O)C(C)C)cc1 (stereo not shown)	-5.93
CCCNC(=O)C1CCN(S(=O)(=O)c2cc(Cl)ccc2Cl)CC1	2.43
Cc1ccc2c(CNCc3ccc4c(c3)OCO4)c(C(=O)O)n(Cc3ccc(F)cc3)c2c1	-0.959
CCc1nc2ccccc2n1CC(O)COc1cccc(OC)c1 (stereo not shown)	3.93
COc1cccc(NC(=O)C2C(C(=O)O)C3C=CC2C32CC2)c1 (stereo not shown)	-3.26
N#CC1=C(N)OC2=C(C(=O)CC(c3ccccc3)C2)C1c1ccccc1F (stereo not shown)	10.5
Cc1ccc(-n2ncc3c(N4CCOCC4)ncnc32)cc1Cl	-0.247
CCOC(=O)c1sc2nc(-c3ccc(C)cc3C)cc(-c3ccccc3)c2c1N	-0.158
C=CCOc1ccc(/C=c2\sc3nc(-c4ccc(F)cc4)nn3c2=O)cc1OC	0.347
COc1ccc2[nH]c3ccccc3c2c1	-1.46
Nc1nn(-c2ccccc2)nc1C(=O)OCc1ccc(Cl)cc1Cl	-0.703
CCOC(=O)c1c(CN2CCOCC2)n(C)c2ccc(O)cc12	-3.93
CCC(C)NC(=O)c1cc2nc(-c3ccccc3)cc(-c3ccccc3)n2n1 (stereo not shown)	-4.13
COc1ccccc1C(=O)Nc1c(-c2ccccc2)nc2ccccn12	5.55
CCOC(=O)C1=C(C)N=c2s/c(=C\c3ccc(C(C)C)cc3)c(=O)n2C1c1ccc2c(c1)OCO2 (stereo not shown)	-6.88
CCN(CC)CCNC(=O)Cn1ncc2c3ccccc3n(Cc3cccc(Cl)c3)c2c1=O	0.137
COc1ccc2[nH]c3c(=O)n(CCCCCC(=O)NCc4ccc5c(c4)OCO5)c(=S)[nH]c3c2c1	1.24
CCc1ccc(C2C(C#N)=C(N)Oc3cc(C)oc(=O)c32)cc1 (stereo not shown)	-2.32
O=C(NCCN1CCN(C(=O)c2ccc(Br)cc2)CC1)C(=O)NCc1ccco1	2.09
O=[N+]([O-])c1ccc(-c2ccc(S(=O)(=O)NCCN3CCCC3)cc2)cc1	-4.96
CC(C)CCn1c(CN(C)Cc2ccccc2)nc2c1c(=O)n(C)c(=O)n2C	2

Compound	% Inhibition @ 10 uM [%]
CC1CC(C)CN(C(=O)C(Cc2ccccc2)NS(=O)(=O)c2cccs2)C1 (stereo not shown)	-9.05
Cc1ccc(C)c(OCc2ccc(C(=O)NCc3ccc(F)cc3)o2)c1	2.32
Cc1nc2cc(-c3ccc(Cl)cc3)nn2c(C)c1CCC(=O)NCc1ccc2c(c1)OCO2	-2.25
COc1ccc2[nH]c3c(=O)n(N)c(=O)[nH]c3c2c1	-3.44
CC(=O)c1cccc(NC(=O)c2ccc3c(c2)C(=O)N(Cc2cccnc2)C3=O)c1	3.81
O=C(c1ccccc1)N1CCC(c2nc(O)c3nnn(Cc4c(F)cccc4F)c3n2)CC1	-4.07
CCN1CCC2(CC1)OC(=O)C(C)=C2C(=O)N1CCN(C(=O)c2ccco2)CC1	2.62
Cc1cc2cc(CNC(=O)c3ccc(F)cc3)ccc2[nH]1	-0.138
CCN(CC)S(=O)(=O)c1ccc(-c2csc(-c3ccccc3)n2)cc1	-0.661
Cc1nn(-c2ccccc2)c(O)c1-c1c(C)nn(-c2ccccc2)c1O	-1.22
Cc1ccccc1-c1nc(CSCC(=O)NC(C)c2ccc3c(c2)OCCO3)c(C)o1 (stereo not shown)	0.689
CC[C@H](C)[C@H](NC(=O)OCc1ccccc1)C(=O)NNC(=O)c1csc([C@H](CC(C)C)NC(=O)OCc2ccccc2)n1	-9.15
Cc1cc2nn(-c3ccccc3)nc2cc1NC(=O)C(C)C	-3.83
O=C(Nc1cccc(F)c1)c1ccccc1Cl	1.48
CCOCCCNc1ncnc2c1cnn2C	0.925
Cc1ccc(S(=O)(=O)Nc2ccc(S(=O)(=O)Nc3nccc(C)n3)cc2)cc1	2.67
CCOc1ccccc1/C=C1\CCC(C2CCCC2)C1=O (stereo not shown)	22.4
Cc1oc(-c2ccc(Cl)cc2)nc1CS(=O)CC(=O)NC(C)c1ccccc1 (stereo not shown)	-2.85
COc1ccccc1CNC(=O)C1CCC(=O)N1C(C)C (stereo not shown)	2.05
COc1ccc(C2=NN(C(C)=O)C(c3ccccc3)C2)cc1OC (stereo not shown)	-1.42
C=Cc1ccc(Cn2c(C)c(CNCc3ccc4c(c3)OCO4)c(C(=O)O)c2C)cc1	-1.92
CCOC(=O)N1CCC(N2CCN(c3ccccc3C)CC2)CC1	-1.81
CC(C)CCNS(=O)(=O)c1ccc2[nH]c3c(c2c1)CCCC3	4.43
CC(C)(C)NC(=O)CN1C(=O)S/C(=C\c2ccccc2)C1=O	1.04
O=C(Nc1ccc(Cl)cc1C(=O)NCc1cccnc1)c1ccco1	2.36

Compound	% Inhibition @ 10 uM [%]
CCn1c(NC(=O)C23CC4CC(C2)CC(n2cnc(Cl)n2)(C4)C3)nc2ccccc21	0.64
COc1ccccc1OCC(=O)NC1CCCCC1	-4.66
O=C(O)Cn1c2ccccc2c2cc(Cl)ccc21	-5.11
COCCNC(=O)Cn1nc(C)n2c(cc3cc(OC)ccc32)c1=O	1.68
C=CCc1cc(/C=C2/NC(=O)N(Cc3ccccc3F)C2=O)cc(OC)c1O	-2.63
COc1cc(NC(=O)c2ccc(OC(F)F)cc2)cc(OC)c1OC	-1.96
Cc1noc(NS(=O)(=O)c2ccc(NC(=O)Cc3ccc(Br)cc3)cc2)c1C	13.6
Cc1ccccc1OCC(=O)Nc1ccccc1NC(=O)COc1ccccc1C	11.4
COc1cccc2c1Sc1ccccc1CC2N1CCN(C)CC1 (stereo not shown)	-7.31
N#CC1=C(N)OC2=C(C(=O)CC(c3ccccc3)C2)C1c1ccc(F)c(F)c1 (stereo not shown)	1.96
CC(=O)N[C@@H](CC1CCCCC1)C(=O)NCC#N	1.35
CCOC(=O)N1CCC2(CC1)OC(=O)C(C)=C2C(=O)NCc1ccccc1	-1.04
COc1ccc(C(=O)C2=C(O)C(=O)N(CCCN(C)C)C2c2ccc(Cl)c(Cl)c2)cc1C (stereo not shown)	-1.61
Cc1ccc2oc(=O)c3cc(C(=O)NCCN(C)C)sc3c2c1	0.232
O=C(c1cccnc1N1CCN(CCO)CC1)N1CCCC1	-2.67
O=c1c2c(-c3ccccc3)csc2nc2c3ccccc3c(NCCN3CCOCC3)nn12	20.4
Cc1ccc(NC(=O)c2ccc(OC(F)F)cc2)cc1C	21.6
NC(=O)c1nc(-c2cccs2)nc2c1nc(O)n2-c1ccccc1	-10
O=C(Nc1ccc(NC(=O)c2ccco2)c(Cl)c1)c1ccc(Br)cc1	4.22
O=C(O)C1C2CCC(C2)C1C(=O)Nc1nc(-c2ccc(Cl)cc2)cs1 (stereo not shown)	2.25
COc1ccc(-c2cc(C(=O)O)c(C)n2C)cc1	-1.51
O=C(Cn1sc2ccccc2c1=O)N1CCN(C(=O)c2ccco2)CC1	-1.65
COc1ccc(CCNC(=O)c2ccc(CS(=O)Cc3ccc(C)cc3)o2)cc1OC (stereo not shown)	-0.154
O=C(c1cc2ccccc2oc1=O)N1CCN(C(c2ccccc2)c2ccccc2)CC1	7.96
C1=C(CCNCC2CCCCC2)CCCC1	-2.77

Compound	% Inhibition @ 10 uM [%]
O=C(Nc1cccnc1)c1cnn(-c2ccccc2)c1-n1cccc1	0.137
Cc1ccc(CN2CCN(c3ncccn3)CC2)c(C)c1	3.1
c1cc2c3c(cccc3c1)C(SCCc1ccncc1)C2 (stereo not shown)	-7.25
Cc1nc2ccc(NC(=O)N3CCC(c4ccccc4)C3)cc2nc1C (stereo not shown)	-5.71
Cc1nc2sc3c(O)cc(O)nc3c2c(C)c1C	-6.58
CN1C(=O)/C(=C/c2nc3ccccc3c(=O)n2-c2ccccc2)c2ccccc21	8.56
COc1ccc(S(=O)(=O)N(CC(=O)N2CCCCC2)c2ccc(C)cc2)cc1Br	-5.13
CCn1c2ccccc2c2cc(CNc3ccc(F)cc3)ccc21	-1.81
O=c1/c(=C/c2c(F)cccc2Cl)sc2nc(-c3ccccc3)nn12	0.0069
CC(C)(C)c1csc(NC(=O)C23CC4CC(CC(C4)C2)C3)n1	-6.36
CC(C)(C)CC(=O)NCc1nc(-c2ccc(Cl)cc2)no1	-6.96
Cc1nn(CCC(=O)NCc2ccco2)c(=O)c2nn(-c3ccccc3)c(C)c12	0.227
COc1cccc(CN2CCN(Cc3ccc(OC)c(OC)c3)CC2)c1	-6.27
Cc1ccc(-c2[nH]nc3c2C(c2ccoc2)C(C#N)=C(N)O3)cc1C (stereo not shown)	9.57
O=C(Nc1ccc2oc(=O)ccc2c1)c1ccc(Br)cc1	-4.23
CC[C@H](NC(=O)C(Cc1c(F)cccc1F)NC(=O)c1ccc(-c2ccccc2Cl)cc1)C(=O)c1nc2ccccc2o1 (stereo partly shown)	-6.56
CN(Cc1ccco1)C(=O)Cn1cc(S(=O)(=O)N2CCCC2)c(S(=O)(=O)N2CCCC2)c1	-7.06
CCOP(=O)(OCC)C(=O)c1ccccc1F	-3.65
COc1cc(NC(=O)C(C)(C)Oc2ccc(Cl)cc2)cc(OC)c1	12.5
COC(=O)c1cc2occc2n1Cc1ccc(C)cc1	-0.405
O=C(NCc1cccs1)C1CCC(CNS(=O)(=O)c2cccc3nsnc23)CC1 (stereo not shown)	-0.465
CCCCc1ccc(-c2nc(/C=N/c3cccnc3)c(O)o2)cc1	1.95
